Data on 45 sequences can be found in the supplement of paper PMC11417369.

± gives the standard deviation of the averaged measurements. The list shows a part of the results.

For the test, the system named is PfAP2-I AP2 domain 3 (GST-tagged). Nature of the test: gcPBM binding intensity (ln(normalized median fluorescence intensity)); higher = stronger DNA binding. Put shortly: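 An Agilent 4 × 180k array carrying primer-extended double-stranded 36-bp intergenic genomic probes and negative controls received GST-tagged P. falciparum DNA-binding domains expressed in E. coli, about 25 μg on average, for 1 h. The binding buffer contained 1× PBS, 1% milk, 0.2 mg/ml BSA, 0.5% salmon testes DNA and 0.03% Triton X-100. Binding intensity is the top Masliner-normalised natural-log median intensity across replicate spots of either probe orientation, read after Alexa488 anti-GST antibody staining and a 488 nm scan.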
Consider “TATAATATATTATATACACACATTATAAAATACCCA [CACACA_site4858]”, for which the “gcPBM binding intensity (ln)” value turned out to be 7.86 ± 0.19. In the case of “CAAAATAAAAATAACACACACATTTATATAAATACA [CACACA_site4790]”, the “gcPBM binding intensity (ln)” value amounted to 7.71 ± 0.5.

As for “ACAGTTAAAACAATAACACACAAAGAAAAAAAAAAA [CACACA_site737]”, the “gcPBM binding intensity (ln)” value worked out at 8.04 ± 0.85. As to “TATATTTTTATTGAACGTACAAAAAGTCGAAAACAG [XGTACX_site3967]”, the “gcPBM binding intensity (ln)” value stood at 8.2 ± 0.28. “TTTAAATACAGACATACACACATACACGCACATATA [CACACA_site6400]”: the “gcPBM binding intensity (ln)” value stood at 8.22 ± 0.29. Under “AGGTAGAAATTGTTAAAAAATCATACATATTATATA [CACACA_negctrl_site622]” stands 7.49 ± 0.4. Consider “AATAATATTTAATACGCACACAATAATAATATAAAA [CACACA_site1763]”, for which the “gcPBM binding intensity (ln)” value amounted to 8.33 ± 0.42.

On to “TCTTATAAAGGTAATTGTACATATTTATAATTTCTT [XGTACX_site4847]”, for which the “gcPBM binding intensity (ln)” value was 7.63 ± 0.3. Consider “GTGAAAGGAAAAGTTGAACACACAAAGTAAACTATA [CACACA_site9178]”, for which the “gcPBM binding intensity (ln)” value is 7.72 ± 0.71. The value for “ATATATTATTATACATGTACATATATAGATATATAT [XGTACX_site4358]” was 7.83 ± 0.37; that for “CACACGCACGAACACACACACATATAAATATAAATA [CACACA_site6299]” was 8.38 ± 0.092. Regarding “AACAATAATTTTGAATGTACATATAAATATTTTTAT [XGTACX_site5501]”, the “gcPBM binding intensity (ln)” value worked out at 7.58 ± 0.42. Take “ATATACATATAGGATGCACACATAATTCAAATACAA [CACACA_site8120]”: the “gcPBM binding intensity (ln)” value is 8.29 ± 0.57.

In the case of “AAAAAAAAGAATAGCACACACACATATATAAATATA [CACACA_site630]”, the “gcPBM binding intensity (ln)” value was determined as 7.95 ± 0.25. TATAATGGTTCTGGTGTGCACCATGACAGAATCAAG: the “gcPBM binding intensity (ln)” value was found to be 9.88 ± 0.22. As to “ATATTAAACAAACACACACACATATATATATATATA [CACACA_site3383]”, the “gcPBM binding intensity (ln)” value turned out to be 9.4 ± 0.51.

For “AATTAATGGTTAAAGGTGCACAATACATATATTACA [GTGCAC_site9943]”, the “gcPBM binding intensity (ln)” value turned out to be 11.32 ± 0.035.

On to “TGCATATACTCAAGCACACATATATATATATATATA [CACACA_site4733]”, for which the “gcPBM binding intensity (ln)” value was found to be 9.44 ± 0.58. “TTTTTTTTTTTTTTTTTTTTTTTTTTTTTTTGGGGG [CACACA_negctrl_site1570]”: the “gcPBM binding intensity (ln)” value was 8.98 ± 1.1. Take “ATATATTGAAAATATAGTACATAATAAATGTTCTTT [XGTACX_site8474]”: the “gcPBM binding intensity (ln)” value was determined as 7.5 ± 0.39. Under “AATAAATTTAAACACACACACACATATATATATATA [CACACA_site4621]” stands 9.33 ± 0.37; under “TATATACATAAACACACACACACATATATATATATA [CACACA_site8707]”, 9.52 ± 0.76; under “ATAAAATAAGACAAAAAAAAAATATATATATATATA [TGCATGCA_negctrl_site314]”, 9.315 ± 0.064.

Take “CCTTGTCTTTTTTTTTTTTTTTTTTCTTCTTATTTT [GTGCAC_negctrl_site523]”: the “gcPBM binding intensity (ln)” value stood at 7.87 ± 0.45. Regarding “AAAAAAAAAAAAAAATGTACATATATATATATATTA [XGTACX_site7330]”, the “gcPBM binding intensity (ln)” value was found to be 8.05 ± 0.26. For “AGTAGATATAATATATGTACATATATATATATATAT [XGTACX_site7186]”, the “gcPBM binding intensity (ln)” value came to 9.26 ± 0.75. In the case of “AATATAAATATAAATATAAATAAATAAATAAATAAA [CACACA_negctrl_site291]”, the “gcPBM binding intensity (ln)” value was 8.05 ± 0.81. Regarding “GTAATTTTTTTCTATACACACATATATATAATATAT [CACACA_site2655]”, the “gcPBM binding intensity (ln)” value was found to be 8.12 ± 0.58. Turning to “AAAGTAAAAGGGTTTGGTACACATATAATATATTAG [XGTACX_site6036]”, the “gcPBM binding intensity (ln)” value came out at 7.95 ± 0.63. Under “ATAACTTTTATTTGTACACACATACATCTATATTAT [CACACA_site6595]” stands 8.39 ± 0.43. Under “AGTAAAAGAAAGCACACACACATGTATTTATGTATG [CACACA_site5998]” stands 8.02 ± 0.46. In the case of “CATTTATATAAAGAATGTACACACAGAAATGCACAC [XGTACX_site4718]”, the “gcPBM binding intensity (ln)” value was found to be 10.2 ± 0.2. Under “TAGTATTTATATGATTAACACACATATGGGTATTAA [CACACA_site8363]” stands 7.47 ± 0.47; under ATATACACCTGAGAGGTGCATATATATAAAATTTAC, 10.6 ± 0.67. “CATAATAGTTATAAAATACACACCAGGCATGATAAA [CACACA_site329]”: the “gcPBM binding intensity (ln)” value stood at 7.61 ± 0.72. On to “AAAAAAAAAAAAAAAAGTACTCAATAATAATTACAT [XGTACX_site670]”, for which the “gcPBM binding intensity (ln)” value turned out to be 8.66 ± 0.45. Regarding “AATGTAGTTTATCGATGTACACAAAATAAAGAGAAG [XGTACX_site6956]”, the “gcPBM binding intensity (ln)” value turned out to be 8.64 ± 0.28. “CCGTACAATTTTGTCACACATAAAATACTTATGTAT [CACACA_site4871]”: the “gcPBM binding intensity (ln)” value worked out at 7.66 ± 0.51.

Consider “ATAAATACATATAAAAGTACACACACACACATATAT [XGTACX_site1744]”, for which the “gcPBM binding intensity (ln)” value was 8.16 ± 0.25. For “ATGTGCAAATATTAAAGTACTAAATTTTATTATTTT [XGTACX_site7306]”, the “gcPBM binding intensity (ln)” value turned out to be 10 ± 0.54.

In the case of “TGTATATGTGAAGCAAGGGATGCGGCAGACATAACA [CACACA_negctrl_site1339]”, the “gcPBM binding intensity (ln)” value amounted to 8.34 ± 1.1. With “TGAAATTTCAATACATGTACATATAAAAAAAAAAAA [XGTACX_site4424]”, the “gcPBM binding intensity (ln)” value amounted to 7.99 ± 0.51. As for “TTTTTTTTTTCTACAAGTACATATTTTCATTTAACA [XGTACX_site6621]”, the “gcPBM binding intensity (ln)” value was determined as 7.99 ± 0.53. On to “AAATTAAAAAAAAATAAATAAAAAAAAAAAAAAAAT [CACACA_negctrl_site1611]”, for which the “gcPBM binding intensity (ln)” value is 7.55 ± 0.42. Take “AAAAAAAAAAAAAAATGTACATATATATATTATAAA [XGTACX_site518]”: the “gcPBM binding intensity (ln)” value stood at 8.09 ± 0.31.
